Measurements published in publication PMC5605996.
No constants are given. Whether binding was seen depends on the method and setting. In cells and extracts the contact can be indirect. Some results given as binding are weak or reduced against the parent protein; the word gives no strength.

Amino acid sequences for entries named in this document (tags omitted).
UniProt Q9V727: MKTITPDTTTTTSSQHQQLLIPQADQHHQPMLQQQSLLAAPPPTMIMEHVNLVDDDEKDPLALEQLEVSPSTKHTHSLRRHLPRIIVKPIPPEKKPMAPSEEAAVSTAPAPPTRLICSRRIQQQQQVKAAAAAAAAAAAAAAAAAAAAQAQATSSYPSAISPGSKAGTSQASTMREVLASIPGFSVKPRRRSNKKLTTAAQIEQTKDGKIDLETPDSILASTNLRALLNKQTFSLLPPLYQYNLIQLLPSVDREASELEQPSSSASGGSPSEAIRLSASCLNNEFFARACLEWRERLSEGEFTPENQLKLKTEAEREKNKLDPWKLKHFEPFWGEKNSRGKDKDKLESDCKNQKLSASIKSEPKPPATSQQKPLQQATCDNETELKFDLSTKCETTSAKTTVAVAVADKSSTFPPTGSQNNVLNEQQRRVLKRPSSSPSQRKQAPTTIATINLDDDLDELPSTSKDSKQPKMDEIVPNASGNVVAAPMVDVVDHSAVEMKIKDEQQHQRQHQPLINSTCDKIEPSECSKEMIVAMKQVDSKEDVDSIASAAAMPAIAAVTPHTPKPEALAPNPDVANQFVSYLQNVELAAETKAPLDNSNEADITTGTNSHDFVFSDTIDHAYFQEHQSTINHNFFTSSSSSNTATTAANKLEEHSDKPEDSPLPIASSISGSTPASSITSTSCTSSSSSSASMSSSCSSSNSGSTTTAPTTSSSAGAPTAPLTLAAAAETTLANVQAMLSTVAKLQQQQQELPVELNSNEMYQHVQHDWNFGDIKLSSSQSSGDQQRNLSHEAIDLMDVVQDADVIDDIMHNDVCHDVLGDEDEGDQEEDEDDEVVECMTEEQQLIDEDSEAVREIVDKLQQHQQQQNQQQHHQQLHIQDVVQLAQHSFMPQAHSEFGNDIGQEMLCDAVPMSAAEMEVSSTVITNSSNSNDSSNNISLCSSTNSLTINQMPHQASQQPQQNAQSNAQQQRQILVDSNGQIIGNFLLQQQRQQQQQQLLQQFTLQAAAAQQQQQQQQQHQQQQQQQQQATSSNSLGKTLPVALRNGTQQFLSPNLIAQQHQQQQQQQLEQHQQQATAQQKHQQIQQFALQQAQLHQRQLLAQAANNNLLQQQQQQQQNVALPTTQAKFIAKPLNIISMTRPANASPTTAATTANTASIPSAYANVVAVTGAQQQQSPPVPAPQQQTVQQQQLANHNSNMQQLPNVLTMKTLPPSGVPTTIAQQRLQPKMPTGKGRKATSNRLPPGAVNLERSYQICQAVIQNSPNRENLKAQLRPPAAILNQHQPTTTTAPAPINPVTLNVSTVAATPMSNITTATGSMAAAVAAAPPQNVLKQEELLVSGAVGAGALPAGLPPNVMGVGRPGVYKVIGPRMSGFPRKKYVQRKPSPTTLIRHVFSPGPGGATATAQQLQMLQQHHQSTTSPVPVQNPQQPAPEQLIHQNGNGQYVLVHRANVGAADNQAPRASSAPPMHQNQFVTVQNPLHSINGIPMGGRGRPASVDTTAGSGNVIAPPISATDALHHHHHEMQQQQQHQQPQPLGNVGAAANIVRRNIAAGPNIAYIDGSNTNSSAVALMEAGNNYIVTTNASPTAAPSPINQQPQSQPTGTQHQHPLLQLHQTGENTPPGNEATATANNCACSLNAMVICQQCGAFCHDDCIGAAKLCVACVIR

Molecular target: GST fusion of the SET domain of Enhancer of zeste, GST-E(z)SET (Drosophila) (UniProt P42124)
Assay: pull-down; 1 μg GST-E(z)SET or GST-TrxSET immobilised on GSH-agarose, mixed 2 h at 4 °C with pre-cleared reticulocyte lysate holding 35S-Asx or its deletion fragments; washes with 0.6 M NaCl, pH 7.9; SDS-PAGE and autoradiography, densitometry relative to GST; only the target purified

binding: binds
Substance: full-length Additional sex combs (Asx), 35S-methionine-labelled, in vitro translated, A(1-1669) (from UniProt Q9V727 1-1669)
